Measurements reported in article PMC12056497.
These are yes or no findings as the source states them, for the method shown. Binding seen in cells or lysates may run through a third protein. Some entries that bind do so weakly or less than the wild type. For some assays here: Sequences can lack the tags named with a protein.

The chains behind the UniProt entries cited, without tags or fusion partners. Where a name states a change or a piece, a line headed by the entry shows the natural chain unless it says otherwise.
UniProt Q9NPQ8: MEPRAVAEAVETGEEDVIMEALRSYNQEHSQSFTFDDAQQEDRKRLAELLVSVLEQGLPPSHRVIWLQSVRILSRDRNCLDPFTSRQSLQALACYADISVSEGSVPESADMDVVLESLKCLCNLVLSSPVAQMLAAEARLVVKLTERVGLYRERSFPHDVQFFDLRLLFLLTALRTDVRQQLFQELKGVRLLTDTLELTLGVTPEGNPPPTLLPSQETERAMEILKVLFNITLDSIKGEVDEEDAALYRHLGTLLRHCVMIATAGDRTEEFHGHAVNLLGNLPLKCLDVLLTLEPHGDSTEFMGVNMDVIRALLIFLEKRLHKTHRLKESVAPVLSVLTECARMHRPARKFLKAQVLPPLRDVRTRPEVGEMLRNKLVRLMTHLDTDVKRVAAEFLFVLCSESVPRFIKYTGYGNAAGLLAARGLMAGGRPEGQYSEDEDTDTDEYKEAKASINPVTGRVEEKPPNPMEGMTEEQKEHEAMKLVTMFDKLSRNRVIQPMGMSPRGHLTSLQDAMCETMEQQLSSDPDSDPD
UniProt P16520: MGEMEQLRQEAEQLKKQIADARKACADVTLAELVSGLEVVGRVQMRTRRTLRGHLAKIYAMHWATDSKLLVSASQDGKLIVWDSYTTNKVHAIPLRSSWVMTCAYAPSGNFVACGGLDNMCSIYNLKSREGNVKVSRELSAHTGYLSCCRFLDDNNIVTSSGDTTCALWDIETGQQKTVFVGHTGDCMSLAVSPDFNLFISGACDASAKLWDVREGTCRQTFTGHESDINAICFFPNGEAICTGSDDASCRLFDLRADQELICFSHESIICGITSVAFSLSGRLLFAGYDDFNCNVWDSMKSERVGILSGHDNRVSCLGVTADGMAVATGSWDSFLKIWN
UniProt P09471: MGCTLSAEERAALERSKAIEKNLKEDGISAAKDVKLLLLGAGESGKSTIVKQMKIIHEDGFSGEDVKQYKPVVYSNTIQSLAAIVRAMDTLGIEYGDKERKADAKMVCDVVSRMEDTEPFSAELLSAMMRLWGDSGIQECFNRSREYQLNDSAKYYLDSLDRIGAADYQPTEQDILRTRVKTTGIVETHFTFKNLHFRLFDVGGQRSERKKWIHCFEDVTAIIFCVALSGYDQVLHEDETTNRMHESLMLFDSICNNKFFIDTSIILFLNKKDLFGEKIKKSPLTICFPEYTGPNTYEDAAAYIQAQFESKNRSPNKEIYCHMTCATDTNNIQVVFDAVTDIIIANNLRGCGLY

Legend:
GFP-Ric8A = GFP-Ric8A (UniProt Q9NPQ8); assay: co-IP; cells (N2a by the results, HEK293T by the methods) co-transfected with GFP-Ric8A and untagged Gαo; IP with a recombinant GST-tagged nanobody against GFP; Western blot with anti-GFP and anti-Gαo
[1] = molecular target: Gβ3γ9 heterodimer (Venus tag on the Gγ9 subunit, from the Go1-CASE plasmid) (UniProt P16520); assay: FRET or BRET; Gβ3γ9 displacement assay: HEK293T co-transfected with the Go1-CASE plasmid and pcDNA3.1 or nontagged Gαo (1:3 ratio); loss of net BRET signal = displacement of the tagged Gαo from Gβγ
EGFP-RGS19 = molecular target: T1, EGFP-RGS19 (UniProt P49795); assay: co-IP; HEK293T co-transfected 24 h with GFP-RGS19 and nontagged Gαo at equal plasmid ratios; IP with a recombinant GST-tagged nanobody against GFP; Western blot with anti-GFP and anti-Gαo
T1 sequence: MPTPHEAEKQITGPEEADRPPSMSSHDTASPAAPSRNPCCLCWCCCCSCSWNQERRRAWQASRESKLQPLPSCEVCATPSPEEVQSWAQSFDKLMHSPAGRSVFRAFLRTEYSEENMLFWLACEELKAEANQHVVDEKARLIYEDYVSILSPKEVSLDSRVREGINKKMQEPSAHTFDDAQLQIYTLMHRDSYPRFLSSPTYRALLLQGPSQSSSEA

NLuc-RGS19 = molecular target: T2, NLuc-RGS19 (UniProt P49795); assay: FRET or BRET; HEK293T co-transfected with NLuc-RGS19 and Gαo internally tagged with GFP at Gly92 (1:5 ratio); furimazine 10 µM; NanoBRET filter
T2 sequence: T1 sequence

| Substance | binding (GFP-Ric8A) | binding [1] | further results |
| --- | --- | --- | --- |
| Gαo G203R, nontagged (highly pathogenic variant, positive control) (from UniProt P09471-1 1-354) | binds | – | – |
| Gαo Q205L, nontagged (constitutively active) (from UniProt P09471-1 1-354) | – | – | binding (EGFP-RGS19): binds |
| Gαo wild-type, nontagged (in pcDNA3.1+) (from UniProt P09471-1 1-354) | – | binds | binding (EGFP-RGS19): binds |
| Gαo^G92-GFP Q205L (from UniProt P09471-1 1-354) | – | – | binding (NLuc-RGS19): binds |
| Gαo^G92-GFP wild-type (internal GFP-tag at Gly92) (from UniProt P09471-1 1-354) | – | – | binding (NLuc-RGS19): binds |

More lines, main results first:

| binding (GFP-Ric8A) | binding [1] | Substance | further results |
| --- | --- | --- | --- |
| binds | no binding | Gαo C225R, nontagged (p.(Cys225Arg)) (from UniProt P09471-1 1-354) | – |
| binds | no binding | Gαo C225Y, nontagged (p.(Cys225Tyr)) (from UniProt P09471-1 1-354) | – |
| – | binds | Gαo wild-type, NanoLuc-tagged (from the Go1-CASE plasmid) (from UniProt P09471 1-354) | – |
